# Measured values reported in the RNAGym collection of RNA variant scans (doi:10.7554/elife.90254).
# The source gives no read counts; variants with many changes may rest on few reads.
# B1: LINE1-mini (parent)
# chain: GGCAGAGCUCAACACAGCGUGGCAAAGUGGCUGUGGCUAGACUGCC
# Variants of: B1
# Assay: self-cleavage, relative activity (ratio to wild type); higher = more cleavage; in vitro, sequencing; the parent is a self-cleaving ribozyme
row,Variant,self-cleavage
1,GGCAGACCUCAACACAGCGUGGCAAAGUAGCUGUGGCUAAACUGCC [G7C G29A G40A],0.54
2,GGCAGAGGUCAACACAGCGUGGCAAAGUGGUUUUGGCUAGACUGCC [C8G C31U G33U],0.06
3,GGCAGAGCUCAACACAGCGUGGCAAAGUGCCUGUGGAUACACUGCC [G30C C37A G40C],0.24
4,GGCAGAGCUCAACACAGCGUGGCACCGUGGUUGUGGCUAGACUGCC [A25C A26C C31U],0.11
5,CGCAGAGCGCAACACAGCGUGGCAAAUUGGCUGUGGCUAGACUGCC [G1C U9G G27U],0.03
6,GGCAGAGCUCAACACAGCGUGGCAAAGUGCCUAUGGCAAGACUUCC [G30C G33A U38A G44U],0.03
7,GGAAGAGCUUAACACAGCGUGGCAAGUUGGUUGAGGUUAGACUGCC [C3A C10U A26G G27U C31U U34A C37U],0.01
8,GGCAGAACUAAACACAGCGUGGCAAAGUGGUUGUGGCUAGACUGCC [G7A C10A C31U],0.01
9,GGCAGAGCCCAACACAGCGUGGCAAAGUGGCUGUGCCUAGCCUGCC [U9C G36C A41C],0.04
10,GGCAGAGCUCAGCACAGCGUGGCAAAGUUGCUGUGGCUUGACUGCG [A12G G29U A39U C46G],0.08
11,GGCAGAGCUCAACACAGGGUGGCAAAGUGGCUGUGGCUAUACUGAC [C18G G40U C45A],0.06
12,GGCAGAGGUCAACACAGCGUCGCAAAGUCGCUGUGGGUCGACUGCC [C8G G21C G29C C37G A39C],0.01
13,GGCCGAGCUCAACCCAGCGUGGCAAAGUGGCUGUGGCUAGCCUGAC [A4C A14C A41C C45A],0.02
14,GGCAGAUCUCAACACAGCGUGACAAAGUGGCUGUGGCUAGACUUCC [G7U G22A G44U],0.24
15,GGCAGAGCUCAACACAGCGUGGUAGAGUGGCUGUGGCUAGAGUGCC [C23U A25G C42G],0.02
16,GGCAGAGCUCCACACAGCGUGGCAAAAUGGCUGUGGCUAGACUGCA [A11C G27A C46A],0.03
17,GGCAGAGCUAAACACAGCCUGGCAAAGUGUCUGUGGCUAGACUGCC [C10A G19C G30U],0.08
18,GGCAGAGCUAAAUACAUCGUGGCAAACUGGCUGUGGCUGUACUGCC [C10A C13U G17U G27C A39G G40U],0.04
19,GGCAGAGCUCUACAAAGCGUAGCAUAGUGGCUUUGGCUAGACUACC [A11U C15A G21A A25U G33U G44A],0.04

row,Variant,self-cleavage
1,GGGAGAGCUUAACACAGCGUGGCAAAGUGGCUAUGGCUAGACUACA [C3G C10U G33A G44A C46A],0.06
2,GGCAGUGCUCAACACAGCGUGGCGAAAUGGCUGUGGCUAGACUCCC [A6U A24G G27A G44C],0.14
3,CGCAGAGCUCAACACAGGGUGUCAAAGUGGCUGUGGCUAGACUCCC [G1C C18G G22U G44C],0.01
4,GGCAGAGCUCAACACCUUGUGGCAAAGUGGCUGUGGUUAGACUGCC [A16C G17U C18U C37U],0.02
5,GGCAGAGUUCAACACAGCGAGGAGAAGUGGCUGUGGCAAGACUGCC [C8U U20A C23A A24G U38A],0.02
6,GGCAGAGCUCAACACAGCUUGGCAAAGUGGCGGUGGCUAGACUCCC [G19U U32G G44C],0.04
7,GGCUGAGCUCAACACAGCGUUGCAAAGUGGCUGUGGCUAGACUGCA [A4U G21U C46A],0.12
8,GGCAGAGCUCAAAAAAGCGUGGCAUCGUGGCUGUGGCUAAGCUGCC [C13A C15A A25U A26C G40A A41G],0.1
9,GGGAGAGCUCUGCACAGCGUGGCGAAGUGGCUGUGGGUAGACUGCC [C3G A11U A12G A24G C37G],0.01
10,GACAGAGCUGAACACAGCGUGGCAAACUGGCUGUGGCUAGAGUCCC [G2A C10G G27C C42G G44C],0.01
11,GGCCGAGCUCAACACAGCGUGGCAAAGUGGCAGUGGCUAUACUGCC [A4C U32A G40U],0.18
12,GGCAGAUCUCAACACAGCGUGGCAAAGUGGCUGUGGCUAGAAUGCU [G7U C42A C46U],0.02
13,GGAAGAGUUCAACACAGCGUGCCAAAGUGGCUGUGGCUAGAGUACA [C3A C8U G22C C42G G44A C46A],0.18
14,GGCAGAGCGCAACACGGCGUGGCAAAGUGGCUGCGACUAGACCGCC [U9G A16G U34C G36A U43C],0.03
15,GUCAGAGCUCAACGCAGCGUGGCAAAGGGGCUGUGGGUAGACUGCC [G2U A14G U28G C37G],0.03
16,GGAAGAGCUCACCACAGCGUGGCAAAGUGGCUGUGGAUAGAUUGCC [C3A A12C C37A C42U],0.01
17,GGCAGAGCUCAACACAUCGUCGCAAAGCGGCUGUGUCUAGACUGCC [G17U G21C U28C G36U],0.05
18,GGCAGUGCUCAACAAAGCGUGGCAAAGUGGCUGUGGCAACACUGCC [A6U C15A U38A G40C],0.06
19,GGCAGAGCUCAACACAGCGUGGCAAAGUGGCUUUGACUAGGCUGCC [G33U G36A A41G],0.14

row,Variant,self-cleavage
1,GGCAGAGCACUUCACAGCGUGGCAAAGUGGCUGUGGCUAGACAGCC [U9A A11U A12U U43A],0.02
2,GGCAGAGCUAAACACAGCGUGACAAAGUGGCUGUGGUUAGACUGUC [C10A G22A C37U C45U],0
3,GGCAGACGUCAACACAGCGUGGCAAAGUGGCUGUGGCUAGACGGCC [G7C C8G U43G],0.02
4,GGCAGGGCUCAACACAGCUUGGCAAACUGGGUGUGGAUAGACUGCC [A6G G19U G27C C31G C37A],0.02
5,GGGCGAGCUCAACGCAGCGUGGCAAAGUGGCUGUGUCUAAAGUGCC [C3G A4C A14G G36U G40A C42G],2.37
6,UGCAGAGCUGAACACAGCGUGGCAAAGUGACUGUGGCUAGAGUGCC [G1U C10G G30A C42G],0.01
7,GGCAGAGCUCAACACAGCAUUGCAAAGUGUAUGUGGCUAGACUGCC [G19A G21U G30U C31A],0.27
8,GGCAGAGCUCAGCACAGCGUGGCAGAGUGGCUGAGGCUAAACUGCC [A12G A25G U34A G40A],0.01
9,GGCAGAACUGAUCACAGCGUGGCAAAGUGGCUGUGGUUAGACUGCC [G7A C10G A12U C37U],0.01
10,GGCAGAGCUCAACACAACGUGGCAAAGUGGUUGUGGCUAGACUGCA [G17A C31U C46A],0.5
11,GGCAGAGCUCAACACAGCGUGGCAAAGUCGCUGUGGCAAGAAUGCC [G29C U38A C42A],0.01
12,GGCACAGCUCGCCACAGCGUGGCAAAGUGGCUGUGGCUAGACUGCC [G5C A11G A12C],0.03
13,GGUAGAACUCAACACAGCGUGGCAAAGUGGCUGUGGCUAGACCGCC [C3U G7A U43C],0.07
14,GGCAGAGCUCAACAAAGGGUGUCAAAGUGGAUGUGGCUAGACUGCC [C15A C18G G22U C31A],0.11
15,GCCAGAGCUCAAUACAGCGUGGGAACGUGGCUGUGGCUAGACUGCC [G2C C13U C23G A26C],0.05
16,GGCAGUGAUCAACACAGAGUGGCAAAGUGGCUGUGGCUAGACUACC [A6U C8A C18A G44A],0.73
17,GGCAGAGCUAAACACAGCAUGGCAAAGUGGCUGUGGCAAGACUGCC [C10A G19A U38A],0.09
18,GGCAGAGCUUAACACAGCGUGGCAAAGUGGCUGAGGCUAGACUGGC [C10U U34A C45G],0.05
